Assay results published in publication PMC4336329 (PLoS ONE, 2015).
About 2,200 (0.71%) of roughly 310,000 compounds showed an effect of 50% or more. Effects have a minus sign here. Some of the results follow.

molecular target: human ether-à-go-go-related gene (hERG) potassium channel (human, UniProt Q12809); test: primary screen, population patch clamp on CHO cells stably expressing hERG
Sequence (Q12809 whole entry, looked up): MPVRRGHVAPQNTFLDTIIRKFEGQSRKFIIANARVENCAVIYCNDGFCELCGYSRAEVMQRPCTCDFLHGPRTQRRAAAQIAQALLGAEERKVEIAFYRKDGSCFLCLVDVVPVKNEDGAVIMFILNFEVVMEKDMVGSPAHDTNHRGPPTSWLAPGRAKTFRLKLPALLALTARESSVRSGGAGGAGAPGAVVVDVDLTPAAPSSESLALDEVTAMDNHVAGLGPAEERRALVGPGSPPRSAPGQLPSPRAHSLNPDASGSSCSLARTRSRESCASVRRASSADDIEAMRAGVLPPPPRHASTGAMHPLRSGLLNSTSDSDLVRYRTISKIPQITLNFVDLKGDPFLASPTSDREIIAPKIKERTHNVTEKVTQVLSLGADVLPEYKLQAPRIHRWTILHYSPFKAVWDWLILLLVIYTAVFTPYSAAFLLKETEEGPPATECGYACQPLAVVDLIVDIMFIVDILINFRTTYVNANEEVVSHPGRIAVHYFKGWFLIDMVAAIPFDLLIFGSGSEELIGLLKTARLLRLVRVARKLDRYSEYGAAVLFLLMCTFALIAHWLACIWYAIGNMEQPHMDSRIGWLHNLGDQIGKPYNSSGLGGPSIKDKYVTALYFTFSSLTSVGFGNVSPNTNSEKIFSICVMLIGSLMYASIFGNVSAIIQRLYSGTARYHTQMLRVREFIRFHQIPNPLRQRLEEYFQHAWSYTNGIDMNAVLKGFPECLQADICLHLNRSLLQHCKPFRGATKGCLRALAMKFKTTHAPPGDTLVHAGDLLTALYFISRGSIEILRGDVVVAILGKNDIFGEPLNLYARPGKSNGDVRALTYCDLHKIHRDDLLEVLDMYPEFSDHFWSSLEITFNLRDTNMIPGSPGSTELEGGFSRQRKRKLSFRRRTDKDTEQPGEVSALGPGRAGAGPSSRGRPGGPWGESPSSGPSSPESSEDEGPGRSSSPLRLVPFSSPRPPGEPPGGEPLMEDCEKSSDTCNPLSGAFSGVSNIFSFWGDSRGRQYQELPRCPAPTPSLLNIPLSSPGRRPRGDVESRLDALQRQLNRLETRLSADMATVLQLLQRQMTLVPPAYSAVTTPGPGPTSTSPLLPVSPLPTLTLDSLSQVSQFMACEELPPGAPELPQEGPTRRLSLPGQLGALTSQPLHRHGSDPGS

Compound	hERG current change (%, negative = inhibition) at 1uM [%]
Cc1ccc(-c2cnc(NC(=O)CCC(=O)N(C)Cc3ccccc3)n2C)cc1	0.527
O=[N+]([O-])c1cccc(C(=Nc2ccccc2Cl)NO)c1	4.3
Oc1ccc(/C=N/N=C(c2ccccc2)c2ccccc2)c(O)c1O	6.7
Cc1ccc(-n2ncc3c2CC(C)(C)CC3NC(=O)C2CCOCC2)cc1 (stereo not shown)	-8.93
Nn1c(SCCOc2ccc(Cl)cc2)nnc1-c1cccnc1	23.1
O=C(N1CCOCC1)N1CCN(Cc2ccccc2)CC1	3.97
O=c1nc(N/N=C/c2c[nH]c3ccccc23)cn[nH]1	26
CN(C)c1ccc(/C=C2/NC(=O)NC2=O)cc1	17.4
O=C(Nc1cc(Cl)ccc1Oc1ccccc1)c1ccccc1F	10
O=C(c1ccc2c(c1)OCO2)N1CCN(S(=O)(=O)N2CCCCC2)CC1	9.32
CN(c1ccccc1N(C)S(=O)(=O)c1ccccc1)S(=O)(=O)c1ccccc1	6.7
Cc1ccc(Nc2cc(C)c(O)c(C)c2)cc1	12
Cc1nc(CN2CCOCC2)cc(=O)[nH]1	-3.69
CC(C)NC(=O)C1CCN(C2CCN(Cc3nc4ccccc4s3)CC2)CC1	-17.1
COC(=O)c1cccc(NC(=O)NC(=O)c2ccccc2Cl)c1	14.2
Cc1ccc(C(=O)CN(CCC(=O)O)C(=O)c2ccncc2)cc1	12.1
COc1cc2c(cc1NC(=O)CSCC(=O)O)oc1ccccc12	11.9
Cc1cc(Cl)ccc1OCC(=O)NCCOC(=O)Nc1sc(=S)n(C)c1C	9.18
O=C(CSc1nnc(Nc2ccccc2)s1)NCCN1C(=O)CSC1=O	27.1
Cc1ccccc1CC(=O)N1CCCc2ccccc21	15.1

Compound	hERG current change (%, negative = inhibition) at 1uM [%]
O=C(Nc1ccccc1N1CCCC1)c1cccc(-c2cc3ccccc3oc2=O)c1	9.48
Cl.Cn1ccc2cc3c(cc21)CCN3C(=O)Nc1cccnc1.O	-3.48
Cc1ccc2nc(/C=C/c3cccc(F)c3)ccc2c1	12
CCn1nc(C(=O)OCc2cccc(S(=O)(=O)N(C)C)c2)c2ccccc2c1=O	1.92
Cn1c(=O)n(C)c2cc(C(N)=O)ccc21	-0.522
CNC(=O)c1[nH]cnc1C(=O)N[C@@H](CC(C)C)C(=O)OCc1ccccc1	-51.8
CC(/C=N/NC(=O)c1cccs1)=C\c1ccccc1	10.6
COc1ccc(N(C)S(=O)(=O)c2cccc(C(=O)NCc3ccc(C)cc3)c2)cc1	7.51
CCOC(=O)/C(C#N)=N/Nc1ccc(S(=O)(=O)Nc2cc(OC)nc(OC)n2)cc1	-1.6
CN(CC1CCOCC1)C(=O)c1ccc2nc(Cc3cccc(Cl)c3)oc2c1	3.09
COC(=O)c1ccc(CN2CCN(Cc3ccc(C(=O)OC)o3)CC2)o1	19.1
CCCNC(=O)c1ccc2c(c1)S(=O)(=O)c1ccccc1C2=O	-0.0772
COCCCNC(=O)CCc1c(C)c2cc3c(C)coc3cc2oc1=O	8.9
COc1ccc(C)cc1N(CC(=O)NCCN1CCOCC1)S(=O)(=O)c1ccccc1	3.25
C=CCNC(=O)O/N=C/c1csc([N+](=O)[O-])c1	18.3
Cn1c(-c2ccc(Br)o2)nc2cc(Br)ccc21	31.1
Cc1ccc2c(c1)N(CCC(=O)NC(C)C)C(=O)CO2	12.4
CCOC(=O)/C(C#N)=N\Nc1cc(Cl)ccc1OC	3.14
Cc1ccc(Cn2c(C3CCCN3c3nc(C)cs3)nc3cc(C(F)(F)F)ccc32)cc1 (stereo not shown)	8.04
CCCCOc1ccc(CN(CCO)CCO)cc1[N+](=O)[O-].Cl	12

Compound	hERG current change (%, negative = inhibition) at 1uM [%]
COc1ccccc1CNC(=O)[C@H](C)NC(=O)C1CCN(C(=O)[C@@H](N)CCSC)CC1	11.1
O=C(CC1C(=O)NCCN1Cc1cccc(Oc2ccccc2)c1)NCCc1cscn1 (stereo not shown)	9.64
O=C(CCn1cnnn1)Nc1ccc(F)cc1	0.52
Oc1ccc(Cl)cc1C1=NNC(c2ccc(Cl)cc2)C1 (stereo not shown)	8.72
Cn1cc(C(=O)OCC(=O)NC2(C#N)CCCC2)c2ccccc21	-1.68
COc1ccc(S(=O)(=O)N(C)C)cc1NCC(=O)Nc1ccc(Br)c(C)c1	-2.91
CCOC(=O)COc1ccc2c(=O)c(-c3ccccc3)coc2c1	18
COCC1CCN(C(=O)CCc2nnc(CCCCc3ccccc3)o2)CC1	9.68
COCC(C)n1c(C)cc(C(=O)COC(=O)c2ccc3ncsc3c2)c1C (stereo not shown)	-2.07
CCOc1ncccc1C(=O)OCC(=O)N1CCc2ccccc21	4.2
C=CCNC(=O)c1ccc(CSc2nc3ccccc3s2)cc1	15
Cc1ccc(C(C)C)c(OCC(=O)OCC(=O)c2c(N)n(C)c(=O)n(C)c2=O)c1	13.2
Cc1cc(NC(=O)CC(C)C)c(=O)n(Cc2ccccc2F)c1	10.7
O=C(N/N=C/c1cc([N+](=O)[O-])cc([N+](=O)[O-])c1O)C(O)(c1ccccc1)c1ccccc1	0.978
O=S1(=O)CC(O)C(N2CCCCC2)C1 (stereo not shown)	0.989
CC(C)(C)C(=O)c1cn(CC(=O)NCc2ccc3c(c2)OCO3)c2ccccc12	4.7
COc1cccc(NS(=O)(=O)c2ccc3c(c2)CCN3C(C)=O)c1	1.94
CCOc1ccc(N2C(=O)CC(N3CCN(c4ccc(Cl)cc4)CC3)C2=O)cc1 (stereo not shown)	15.7
